Measurements as given in the supplement of paper PMC12217912.
Some of the results follow. Sequences were assembled here from the parent chain. Inactive controls read about 0.05.

B1: TEV protease; numbered along this chain (parent)
chain: MGESLFKGPRDYNPISSSICHLTNESDGHTTSLYGIGFGPFIITNKHLFRRNNGTLVVQSLHGVFKVKDTTTLQQHLVDGRDMIIIRMPKDFPPFPQKLKFREPQREERICLVTTNFQTKSMSSMVSDTSCTFPSGDGIFWKHWIQTKDGQCGSPLVSTRDGFIVGIHSASNFTNTNNYFTSVPKNFMELLTNQEAQQWVSGWRLNADSVLWGGHKVFMVKPEEPFQPVKEATQL

Variants of: B1
Assay: raw area under fraction-flipped curve 0-4 h after induction (AUC4h, not background-subtracted), DNA-recorder readout of cleavage of the substrate (dimensionless); higher = more cleavage of the substrate by the protease variant
Conditions: temperature: 34 °C; time window: 0-4 h after rhamnose induction
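Note: Bxb1 expression induced with 0.2% (w/v) L-rhamnose at OD600 near 0.5, cultures sampled hourly, flipped fraction per protease–substrate barcode pair counted by paired-end Illumina sequencing.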

| Variant | area with substrate EDLYFQS | area with substrate EGLYFQS | area with substrate EHLYFQS | area with substrate EKLYFQS | area with substrate EPLYFQS | area with substrate ERLYFQS | area with substrate ESLYFQS | area with substrate EVLYFQS | area with substrate EWLYFQS | area with substrate EYLYFQS | area with substrate EILYFQS | area with substrate EQLYFQS | area with substrate EELYFQS | area with substrate ELLYFQS | area with substrate EMLYFQS | area with substrate ETLYFQS | area with substrate EFLYFQS |
| --- | --- | --- | --- | --- | --- | --- | --- | --- | --- | --- | --- | --- | --- | --- | --- | --- | --- |
| MGESLFKGPRDYNPISSSICHLTNESDGHTTSLYGIGFGPFIITNKHLFRRNNGTLVVQSLHGVFKVKDTTTLQQHLVDGRDMIIIRMPKDFPPFPQKLKFREPQREERIWLVTTNFQTKSMSSMVSDTSCTFPSGDGIFWKHWIQTKDGQCGSPLVSTRDGFIVGIHSASNFTNTNNYFTSVPKNFMELLTNQEAQQWVSGWRLNADSVLWGGHKVFMVKPEEPFQPVKEATQL [C111W] | 0.0945 | 0.0891 | 0.103 | 0.0565 | 0.0877 | 0.116 | 0.0992 | 0.0697 | 0.0831 | 0.0877 | – | – | – | – | – | – | – |
| MGESLFKGYRDYNPISSSICHLTNESDGHTTSLYGIGFGPFIITNKHLFRRNNGTLVVQSLHGVFKVKDTTTLQQHLVDGRDMIIIRMPKDFPPFPQKLKFREPQREERICLVTTNFQTKSMSSMVSDTSCTFPSGDGIFWKHWIQTKDGQCGSPLVSTRDGFIVGIHSASNFTNTNNYFTSVPKNFMELLTNQEAQQWVSGWRLNADSVLWGGHKVFMVKPEEPFQPVKEATQL [P9Y] | 0.141 | 0.108 | 0.1 | 0.117 | 0.118 | 0.147 | 0.11 | 0.105 | – | 0.125 | 0.0992 | 0.102 | – | – | – | – | – |
| MGESLFKGPRDYNPISSSICHLTNESDGHTTSLYGIGFGPFIITNKHLFRRKNGTLVVQSLHGVFKVKDTTTLQQHLVDGRDMIIIRMPKDFPPFPQKLKFREPQREERICLVTTNFQTKSMSSMVSDTSCTFPSGDGIFWKHWIQTKDGQCGSPLVSTRDGFIVGIHSASNFTNTNNYFTSVPKNFMELLTNQEAQQWVSGWRLNADSVLWGGHKVFMVKPEEPFQPVKEATQL [N52K] | 0.0642 | 0.0705 | – | – | 0.0822 | 0.066 | 0.0708 | 0.0622 | 0.0621 | 0.0722 | 0.0914 | 0.07 | 0.0596 | 0.075 | 0.0684 | – | – |
| MGESLFKGPRDYNPISSSICHLTNESDGHTTSLYGIGFGPFIITNKHLFRRNNGTLVVQSLHGVFKVKDTTTLQQHLVDGRGMIIIRMPKDFPPFPQKLKFREPQREERICLVTTNFQTKSMSSMVSDTSCTFPSGDGIFWKHWIQTKDGQCGSPLVSTRDGFIVGIHSASNFTNTNNYFTSVPKNFMELLTNQEAQQWVSGWRLNADSVLWGGHKVFMVKPEEPFQPVKEATQL [D82G] | 0.0215 | – | – | 0.0416 | 0.065 | – | – | 0.0468 | 0.054 | – | 0.0546 | 0.0611 | – | – | 0.0563 | – | – |
| MGESLFKGPRDYNPISSSICHLTNESDGHTTSLYGIGFGPFIITNKHLFRRNNGTLVVQSLHGVFKVKDTTTLQQHLVDGRDMIIIRMPKDFPPFPQKLKFREPQREERICLVTTNFQTKSMSSMVSDTSCTFPSGDGIFWKHWIQTKDGQCGSPLVSTRDGFIVGIHSASNFTNTNNYFTSVPKNFMELLTNQEAQQWVSYWRLNADSVLWGGHKVFMVKPEEPFQPVKEATQL [G202Y] | 0.0852 | 0.0701 | 0.053 | 0.0597 | – | 0.023 | 0.0503 | 0.0516 | – | – | 0.059 | – | 0.0607 | – | – | 0.0615 | – |
| MGESLFKGPRDYNPISSSSCHLTNESDGHTTSLYGIGFGPFIITNKHLFRRNNGTLVVQSLHGVFKVKDTTTLQQHLVDGRDMIIIRMPKDFPPFPQKLKFREPQREERICLVTTNFQTKSMSSMVSDTSCTFPSGDGIFWKHWIQTKDGQCGSPLVSTRDGFIVGIHSASNFTNTNNYFTSVPKNFMELLTNQEAQQWVSGWRLNADSVLWGGHKVFMVKPEEPFQPVKEATQL [I19S] | 0.104 | – | 0.114 | 0.0941 | – | – | 0.101 | 0.0878 | – | – | – | – | – | – | – | – | 0.0901 |
| MGESLFKGPRDYNPISSSICHLTNESDGHTTSLYGIGFGPFIITNKHLFRRNNGTLVVQSLHGVFKVKDTTTLQQHLVDGRDMIIIRMPKDFPPFPQKLKFREPQREERICLVTTNFQTKSMSSMVSDTSCTFPSGDGIFWKHWIQTKDGQCGSPLVSTRDGFIVGIHSASNFTNTNNYFTSVPKNFMELLTNQEAQQWVSGWRLNADSVLWLGHKVFMVKPEEPFQPVKEATQL [G213L] | 0.0429 | – | – | 0.0631 | 0.036 | 0.0412 | 0.0642 | – | 0.0498 | – | 0.0472 | – | – | 0.0569 | 0.121 | – | 0.0536 |
| MGESLFKGPRDYNPISSSICHLTNESDGHTTSLYGIGFGPFIITNKHLFRRNNGTLVVQSLHGVFKVKDTTTLQQHLVDGRDMIIIRMPKDFPPFPQKLKFREPQREERICLVTTNFQTKSMSSMVSDTSCTFPSGDGIFWKHWIQTKDGQCGSPLVSTRDGFIVGIHSASNFTNTNNYFTSVPKNFMELLTNQEAQQWVSGWRLNADSVLWGGHKVFMVKPEEPFQPVKAATQL [E231A] | 0.131 | 0.0836 | – | 0.138 | 0.145 | – | 0.0738 | – | – | – | – | 0.11 | – | – | 0.104 | 0.119 | – |
| MGESLFKGPRDYNPISSSICHNTNESDGHTTSLYGIGFGPFIITNKHLFRRNNGTLVVQSLHGVFKVKDTTTLQQHLVDGRDMIIIRMPKDFPPFPQKLKFREPQREERICLVTTNFQTKSMSSMVSDTSCTFPSGDGIFWKHWIQTKDGQCGSPLVSTRDGFIVGIHSASNFTNTNNYFTSVPKNFMELLTNQEAQQWVSGWRLNADSVLWGGHKVFMVKPEEPFQPVKEATQL [L22N] | 0.0506 | – | 0.0482 | 0.0477 | 0.0545 | 0.0559 | 0.0546 | 0.0518 | – | 0.0462 | 0.0466 | 0.048 | – | 0.0454 | 0.0466 | – | – |
| MGESLFKGPRDYNPISSSICHLTNESDGHTTSLYGIGFGPFIITNKHLFRRNNGTLVVQSLHGVFKVKDTTTLQQHWVDGRDMIIIRMPKDFPPFPQKLKFREPQREERICLVTTNFQTKSMSSMVSDTSCTFPSGDGIFWKHWIQTKDGQCGSPLVSTRDGFIVGIHSASNFTNTNNYFTSVPKNFMELLTNQEAQQWVSGWRLNADSVLWGGHKVFMVKPEEPFQPVKEATQL [L77W] | 0.0931 | – | 0.0771 | – | 0.0677 | 0.0693 | 0.0217 | 0.0672 | 0.0688 | – | 0.0651 | – | – | – | 0.138 | 0.0774 | – |
